# Whole data set: some 1,800 sequences, median “median log2 fold change of GCK-ALFA target abundance (FLAG IP / Myc IP barcode read proportion)” near 0.14, cut for the lowest 2% near -0.84. Some of the results follow.
# T1: TRAF2, Q12933
# T1 chain: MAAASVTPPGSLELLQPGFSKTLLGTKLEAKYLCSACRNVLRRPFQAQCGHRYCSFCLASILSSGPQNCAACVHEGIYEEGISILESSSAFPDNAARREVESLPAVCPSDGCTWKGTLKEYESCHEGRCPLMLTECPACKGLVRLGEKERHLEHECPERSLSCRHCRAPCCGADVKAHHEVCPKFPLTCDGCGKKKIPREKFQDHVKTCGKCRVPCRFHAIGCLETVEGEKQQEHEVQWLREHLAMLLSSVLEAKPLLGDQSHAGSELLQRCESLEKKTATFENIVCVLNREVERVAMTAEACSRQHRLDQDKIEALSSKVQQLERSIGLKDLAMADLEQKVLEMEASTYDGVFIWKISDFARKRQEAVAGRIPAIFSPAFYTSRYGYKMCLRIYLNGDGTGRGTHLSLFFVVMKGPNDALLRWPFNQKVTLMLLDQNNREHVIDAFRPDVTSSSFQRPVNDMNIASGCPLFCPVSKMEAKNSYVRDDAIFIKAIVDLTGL
# B1: traf2_out_16_104_1384 (protein)
# chain: SAARDAEFDAIIARLEEIAERAQKIANELYKLYEKASPEEKEKLSDALVEVSEIRRRALEAAIAAREAREAGGDVAEARAALEELEKRLKEAEKKVKELK
# B2: traf2_out_18_157_1818 (protein)
# chain: MSDEELLELAKFAQEAADRFEDLVEELADASLEEFVEALEKLAKELIKEGKKFPKETVLDLLKRQARRAVRRWGERRGLSEEEVEEAVERVEEFIKKEIE
# B3: traf2_out_18_3_1940 (protein)
# chain: KEEKLKEVSEKIDEIIDEVTARAREALARLAAEHPEHAARAAALAADLEAGAGPFGILEELAELWREAGDEAAAAALEAFLAAKRKELQKLVDEYEKLRK
# B4: traf2_out_12_187_954 (protein)
# chain: SVKEELLKAAKEAYERAVKLLEKYAGEDPFVQELLEKLKELKELLEKHPEIAADFLVAASAIIRYMRLIEEGAPEEEIEAARKEAEKLLEEALKEAKKLE
# B5: traf2_out_20_38_2012 (protein)
# chain: SEEEKEKEKEEKLIEHANEAYDRAEAWVAALQAAGKSVAEIAAEAKKRIRELLTAHGLEEEAEELIEDVDRVLDSPDAERLIVQILARAETLVFQKELQK
# B6: traf2_out_11_169_802 (protein)
# chain: KEAEKNRKINDFALELNDEAKEKLKKFALELAKEAGLDVEEVKKIFEEHKNASLSEVAAALIKYFKSKGKEEVAKKILEKYEELKEEINEKGTKKIKELE
# B7: traf2_out_20_3_2105 (protein)
# chain: EELEREYEEELERAERLLEEAAELADPETAERLRELRERVRRSRELPYTDRLVELSEVRREVLRLAEEARAAGDEELARVLEEAAEELNEAMNLVMQIIE
# B8: traf2_out_13_95_1225 (protein)
# chain: SEETNEKLRKVSNDMLDKAEAVLEALAAELAPHPELQPAMAAIRAAFRNQGIRAAIAQLRAAAAAFPEVAAALDAAAAELEAIRREAGKKVAEILKEEEE
# B9: traf2_out_16_104_1415 (protein)
# chain: SAAAQAEFDAIIAGLEAIAERAGRLANRAYKLMETASPEDRVKLSDLLVEASELRREALAAAEAVRAARAAGGDLAEARATLAALEARLEALEKRLKELE
# B10: traf2_out_11_169_786 (protein)
# chain: EEKEKNRKYNDFALEKEDEAKKKLEEFALALAKEAGLDVEEVKKIFEENKGKSLSAIAAALIDYFKSKGNEAVAQAVLEKYEELKEEINKKSSEFLKELE
# B11: traf2_out_20_3_2061 (protein)
# chain: SELEKKLQEELDKALKLLKEAAKAADPETAKKLKELAKKLKASKELSYEDRLVELSEIRRELLELAEKAKAAGDEELAALLEEAADALNKAMQLTYEIIK
# B12: traf2_out_11_131_656 (protein)
# chain: MDAVAMAESAAERVDERLEIAKTLSPEERLRLARQSLDSLEALAEYLKEHVKEMSKEDVEKAAKILRESAEKILEFSPEVEEEAKEVEEAIKKLLEAAKA
# B13: traf2_out_8_174_2562 (protein)
# chain: SEREILKKAANLGLEYQNKIDEIKEKRKELEKKSLEEAVEYTEKEGKKLLEEIDKDAEEAKKTLDEETYKAVNRVLNSARTRTENLIKGTKIMAAAKKAA
# B14: traf2_out_12_50_974 (protein)
# chain: SEEEEEEEENEEFRKLAEEVEKKADEILEKTNGDPEKIIELAKEAAKKGLEELSLYVNAVRTIYTQRYIRGEKPEEWAKVLEEVEKILAEKEEKEEEEKK
# B15: traf2_out_20_38_2010 (protein)
# chain: SEEEKEKEKLEKLVEVANEAYDKYSAEFEKWKAEGKTVEEIAEEVKKRVKEKLSAAGLEEEAKILIEDIDLALSSPNAWRLLVRTLARADALVKQKELNK
# B16: traf2_out_17_178_1744 (protein)
# chain: SKEEILKKISEYADEMLDVSREAAERLREIAEREGVLTPELRRRLEEVARNSNLYAFEEVADEVIARTSSAEEVQKLKDETAAKLKELNKKIQELVEKYE
# B17: traf2_out_18_117_1801 (protein)
# chain: GEIEKAKKEFEKAVKAFEEVRTRAQRVAGQLIERHPHNLPQAATDAMVRFGEAKRRFNLLVQEAKENENDLEKLKKIVEEVKKLTEEMKAILAELEALLA
# B18: traf2_out_8_15_2549 (protein)
# chain: SIKEAAEKDIARLRALSDGDVESLINTLLGTAKAELRYAKILAEEGRKEEALRSLEAAEVYANAALELAKEAGSPNLEEIKKEVEKILKEIEKLKKEIKA
# B19: traf2_out_9_108_2581 (protein)
# chain: MSREEKLEEIFKKVLELVDEFKAENELTPEQRESLDAAIEQAEKLYEAGEKRTAIVLLAIDLARIASEVGEEALKKLLEKLKEIDPIAASAAERMAKLLK
# B20: traf2_out_17_178_1709 (protein)
# chain: TKEEARKKISEATDEMIDLARAAAARLLEIARREGSLSPEELAALERARRLGSARTTIALMRRAIPLLPSADEVRALLDDFEARYKELSKKIAEALKEYE
# B21: traf2_out_18_167_1848 (protein)
# chain: EEEIRAKREELSDRLVQLSEVKRAARAALQALDTDPATVPATLAKLEAAAASIPELQPLVAAAKAALAAGDREALRATLEALIAKAQALMNETLAEYEAL
# B22: traf2_out_6_3_2529 (protein)
# chain: SEEKLREDARTILENMGITTAEQLLRLVKAEVNAVKQLVSRPDVDRADLAGARSVLALTRAMVEVAAETLPSLTPEQAEEALALIDETEKLVEKREKELE
# B23: traf2_out_18_117_1800 (protein)
# chain: SALEKAQAEFEKTSKEFEEALSEAQRVATQLIEKYPKALPSEATDALVRFGEVKRKAAQLKQEAKANPNDLEKQKEIVEQLKKLLKEAKEIKEKLEEILK
# B24: traf2_out_6_156_2414 (protein)
# chain: MVEKIFEEAMKKIKEEIKKLAEASEEKKIQYISKIAGTAYRALQELREAGASLEEIEEFSKRLSEEAKKEAKKAGLPEDVINLLMSALNAVFDVAIAEAK
# B25: traf2_out_19_16_1965 (protein)
# chain: PEEELERLRRELEEIRREVEELERYFEENEETLTREELSDLLVRVSELKRRALEILQRLEELEPYDPEEVERLRREAEEVIRRAQRLMNRLVEKYEELLK
# B26: traf2_out_1_158_912 (protein)
# chain: DTKKKLMLSSVELVVKDAVESARENGDEETAKAIEELGEKIIELVKKLAIEEGKSVEEVIEEIDKLAAEFKAKADPETAAAIERLTRRVKSALRQVEKLM
# B27: traf2_out_18_117_1793 (protein)
# chain: SELDEIIKELEKLAEELDKAASRLGKLMLEKWEELSPEERSEAMDVLADLTAVRQEALRLIQEIKAGKIPLEEAKKRAEELKKRAEEALKRAEEMIKKIE
# B28: traf2_out_1_158_907 (protein)
# chain: STDVSLLNAVATSTLDVYAENAKERGLEKAAALFEELKKEVEELYEKNKDASLEEFAAKLLALLDEFEEKSKSLPAEDRALVDIAIRQARSGILQVVKLA
# B29: traf2_out_11_104_649 (protein)
# chain: LTREQAREFNDFAMEKRDKALEIAKKVAEELKKAGHEEMAAQVEALINNPGGGISDIRNLLEELKPKLSPEMQKVAEKAIEELEKLQKEVSDKLNELEAK
# Molecular target: T1, TRAF2, Q12933
# Test: median log2 fold change of GCK-ALFA target abundance (FLAG IP / Myc IP barcode read proportion) (log2 ratio); each designed protein is fused to an ALFA-tag nanobody in HEK293 cells to bring the named protein to FLAG-tagged glucokinase (GCK); Myc marks an untargeted standard; higher = target protein stabilised (more abundant)
# Conditions: target protein: 3xFLAG-MCP-GCK-ALFA reporter; HEK293 landing pad (RPLP)
# Procedure, shortened: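 An ALFA-nanobody-fused binder library was recombined into HEK293 landing-pad cells and induced with 2 μg mL^−1 doxycycline. Cells were transfected with a plasmid expressing a FLAG-tagged target and a Myc-tagged standard. After 48 h, lysates underwent anti-FLAG and anti-Myc immunoprecipitation, and circular RNA barcodes were reverse transcribed, amplified and sequenced. Target abundance is the per-binder median log2 ratio of FLAG to Myc barcode read proportions. Barcodes needed ≥10^−7 proportion in both replicates, binders ≥3 barcodes per replicate, and a 10^−6 pseudocount was added; the two replicates were pooled.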
row,Binder,median log2 fold change
1,B1,0.769
2,B2,0.132
3,B3,0.191
4,B4,0.306
5,B5,0.283
6,B6,0.34
7,B7,0.172
8,B8,0.0407
9,B9,0.3
10,B10,0.407
11,B11,0.112
12,B12,0.344
13,B13,0.234
14,B14,0.047
15,B15,-1.49
16,B16,0.11
17,B17,0.222
18,B18,0.339
19,B19,0.147
20,B20,-0.447
21,B21,0.169
22,B22,-0.16
23,B23,0.246
24,B24,-0.000683
25,B25,0.144
26,B26,0.0872
27,B27,0.574
28,B28,0.206
29,B29,0.21

# — the supplement of paper PMC12632987
